# ± gives the standard deviation of the averaged measurements. The list shows a part of the results.
# System: PfAP2-I AP2 domain 3 (GST-tagged)
# Test: gcPBM binding intensity (ln(normalized median fluorescence intensity)); higher = stronger DNA binding
# How it was run: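 DNA-binding domains from P. falciparum, fused to GST and produced in E. coli, were put on an Agilent 4 × 180k double-stranded probe array for 1 h in 1× PBS holding 1% milk, 0.2 mg/ml BSA, 0.5% salmon testes DNA and 0.03% Triton X-100. Probes were primer-extended, 36 bp long and drawn from intergenic genomic regions, with negative controls included. After Alexa488 anti-GST antibody detection and a 488 nm scan, binding intensity was set as the highest Masliner-normalised natural-log median intensity across replicate spots of either probe orientation.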
row,Sequence,gcPBM binding intensity (ln)
1,TAAAACATATATACAAGTACACAAAGGATATATATA [XGTACX_site3710],7.93 ± 0.71
2,CAGTGCCAAATTAGCACACACATATATACATGAATT [CACACA_site2814],9.48 ± 0.22
3,ATGTAGATAAAACGTGTGCACATGTTTTTTGTTATT,9.52 ± 0.33
4,CACAGTGATATAAAAACACACATGAATTATAATTTC [CACACA_site1667],7.46 ± 0.64
5,TTTTGTTATGGTTTGATGCACTTATATATAAATATT [GTGCAC_site9705],9.53 ± 0.43
6,ATATATATATATATATGTACTTATTACCAATGTTAG [XGTACX_site1896],9.34 ± 0.29
7,TAATTATGTATGAACTGTACAGGTTATTTTATTTTA [XGTACX_site5204],7.76 ± 0.26
8,TAAAATTTAAATTATACACACTTAAGTAACATCATC [CACACA_site4450],7.96 ± 0.51
9,AAAAAATACCTCTATAGTACATATATATAATATTTA [XGTACX_site7222],7.55 ± 0.52
10,AAAAAAAATTTATTTGCATGCAAAAAAAAAAAAAAA [TGCATGCA_site67],8.23 ± 0.89
11,TCTTAAATATATAAATTGAAAAATATAAAAGTAATA [CACACA_negctrl_site1558],7.5 ± 0.46
12,AAAACAATATACTGTAGTACTGATGATATATATATA [XGTACX_site7798],8.98 ± 0.092
13,ACAATATAGATTAAAAGTACAAATAGTAAATTATAT [XGTACX_site3165],7.85 ± 0.72
14,ATAAAAAAAAATAGCACACATAAATATATTATATAT [CACACA_site767],7.98 ± 0.35
15,CTACTTATAAATAGAACACACATAAGTGTATTTGTA [CACACA_site3759],7.66 ± 0.33
16,AATCATCTCATAAAAATTAATTAGTGTATGTCTTTT [TGCATGCA_negctrl_site416],7.39 ± 0.59
17,TATATACATACATATACACACATATATATATATATA [CACACA_site401],9.21 ± 0.51
18,GTATAAAATATTGATTGTACTTTATTCATTTTTTTT [XGTACX_site2520],7.55 ± 0.43
19,TCATATTCCAAGTGTACACATAAATCCCTAATAACA [CACACA_site5167],8.15 ± 0.51
20,TCATTGTTTAATATGTGTCCTCAAAATTTGTTATAT [XGTACX_site677],7.76 ± 0.52
21,TCTTGTTAATATATTAAATATATCTATAAATATATA [XGTACX_negctrl_site486],7.7 ± 0.41
22,ACAAATGGAACTCCTACAAAAAATTTCCATAATATT [XGTACX_negctrl_site132],7.42 ± 0.66

row,Sequence,gcPBM binding intensity (ln)
1,TAAACCTATTATACGGGTACTTATTTGATTCTTATA [XGTACX_site5292],7.57 ± 0.56
2,AAAAATAAAACAATTACACACATAACTTTATTTTTA [CACACA_site6563],7.82 ± 0.52
3,AAAAGCTTAAAAAATTGTACATAAATGAATAAATAT [XGTACX_site5201],7.54 ± 0.53
4,GAACTCATTTAATATTGTACATTCTGATATTTTTTA [XGTACX_site5995],7.93 ± 0.49
5,ACCACCATATAACATACATGCATCTTTTTTCCCTTC [TGCATGCA_site583],8.71 ± 0.5
6,AATATATGATAATTTTTTTTTTTTTTTTTTAAATAT [CACACA_negctrl_site452],7.21 ± 0.35
7,AACAATTGTTAAAGGTGTACCATATGTATATAAGAA [XGTACX_site5723],8.38 ± 0.56
8,AGACGTAATAATTGTTGTACATAAAAAAATAAGAAA [XGTACX_site7594],8.02 ± 0.46
9,AAAAAATGTTAAAAAAGTACTTTCTTTATTTAATAA [XGTACX_site2908],7.51 ± 0.3
10,TGTGTTAGCAAAAAAGTGCACAGGGAAAAAAAAATA [GTGCAC_site9397],10.5 ± 0.17
11,ATGATATTATAAAAAAGTACATATGTATATAATTAT [XGTACX_site7652],8.03 ± 0.44
12,AATGCACAGCTCTTAGGCAAAAGTGGGTATTTACAC [GTGCAC_negctrl_site579],8.76 ± 0.53
13,TGTATAAAAAACTAATGTACAAATGACAAGATATCT [XGTACX_site4600],7.61 ± 0.61
14,CATTTAGTTCATACTATGCACACTACGTATATTTTT [CACACA_site2694],8.82 ± 0.58
15,ATTTAATACAAATACACACACAAATATGTACCTATA [CACACA_site7718],7.8 ± 0.54
16,ACAATTCATTAGAATTGTACAAAAGGATGAAGCGAA [XGTACX_site5242],8.14 ± 0.64
17,ATTTTTTTTTTTTAATTTGATATTTGCGTTTATATA [CACACA_negctrl_site1305],7.46 ± 0.65
18,AATTTTTTTTTCTTTTGTACGTAAATATGTGTAGGC [XGTACX_site215],8.33 ± 0.26
19,CTAATAAAAAAAAAAAGTACATATGACAATATAAAG [XGTACX_site1598],8.17 ± 0.44
20,TTAACACATTTTATGTGTACTCATATGATTTAAAAT [XGTACX_site7516],7.78 ± 0.18
21,TTAAAATGAAGAAGTGCACACATATATATATTTATA [CACACA_site8063],9.67 ± 0.18
22,TATAAACAGACGAAAACACACATATGTAGATATATA [CACACA_site6371],7.9 ± 0.69

row,Sequence,gcPBM binding intensity (ln)
1,TATATATTAGTGTTGACACACACAAAAAAAAAAAAA [CACACA_site8392],8.12 ± 0.71
2,ATTTTTTTTTTTTTTTTTTTTTTTTATGAATGTTAT [CACACA_negctrl_site1319],7.62 ± 0.5
3,ATCAGGCAAAATTTTTGTACATATATATTTTATTTT [XGTACX_site1245],8.06 ± 0.63
4,ATTTTTTTTTTTTTTTTTTTTTTTTTTTTTTTTTTT [CACACA_negctrl_site1364],10.4 ± 0.2
5,AGATTTCAAGGTAATAGATCAATTTTAATTTGTAAA [CACACA_negctrl_site514],7.18 ± 0.4
6,ATGAACATGTGACAATGTACATTTATATCTTAAGAA [XGTACX_site4960],7.61 ± 0.51
7,ATAATATATATATATATGTATGTATATATGTATGTA [GTGCAC_negctrl_site575],7.64 ± 0.38
8,TACACCCAGAAATGCACACACATATATATATATATA [CACACA_site5289],9.61 ± 0.26
9,TATATATATATAATAGCATGCTATATTATATATATA [TGCATGCA_site886],8.98 ± 0.35
10,TATTCTTATTATTACACACACAATTATATTTACCCC [CACACA_site6381],8.29 ± 0.32
11,TTAACATAAATTGTGTCATTTTTTTTTTTTTTTTTA [CACACA_negctrl_site1221],7.21 ± 0.56
12,TATTTTTTAATTGTTTCACACATTATTTTTTACATA [CACACA_site6078],7.72 ± 0.54
13,TTTTATATAAATATCACACACACACGCATGTTTTAA [CACACA_site6187],7.86 ± 0.66
14,TACAATATACCTACTTGTACACAAAATAAAAGTAGT [XGTACX_site6029],7.86 ± 0.45
15,TACACACCTAACTATGCATGCATCAATATAGTGGAT [TGCATGCA_site443],7.76 ± 0.75
16,TATTCATGCATATACACACACATATATATATATTTT [CACACA_site3955],8.45 ± 0.58
17,AATGAAAAATTGTAATGTACATAAATAAATAAATAA [XGTACX_site4048],8.5 ± 0.96
18,ATCATAATTTATTATACACACAATACGTGACCTATT [CACACA_site6977],8.06 ± 0.47
19,AAAAAAAAATTAAACATACACACGTTACTATTTTTA [CACACA_site1687],7.37 ± 0.53
20,TATATGTGATAACACGCACACAAATGTATATAATTT [CACACA_site2593],8.1 ± 0.28
21,ATAAAATAAAAATTCTGTACAGAATTAAAAAAATAT [XGTACX_site6961],7.93 ± 0.71
22,AAAAAAAAAAAACATACACACATTGAACTTTTATAT [CACACA_site3250],7.59 ± 0.58

row,Sequence,gcPBM binding intensity (ln)
1,AAAAAAAGTAAAAAGTGTACTTAATATATATATATA [XGTACX_site838],9.18 ± 0.085
2,TGTAGCATTTAATTCACACATAAAAAATGTATCCAT [CACACA_site4986],7.62 ± 0.3
3,ATATATATATTTAAGGTGCGATTTTGTTATATTTAA,9.09 ± 0.24
4,TTTTTATTAGGACATGCATACAAAATTAAAAAAAAT [TGCATGCA_site258],8.11 ± 0.57
5,CTTATTTTATGTTATACACACAAAGAAAAAAAATAA [CACACA_site2165],8.1 ± 0.47
6,TTATTAAAATATTAAAGTACAAAAAAAATAAATAAA [XGTACX_site6507],7.84 ± 0.45
7,TTATGTATATTATAAATTAATACATTTAAATTAATA [CACACA_negctrl_site34],7.24 ± 0.26
8,GTATATAATTTATGTGCACACACTCCTATTTTTAGC [CACACA_site49],10.2 ± 0.19
9,AATTATATTAATATATAATAAAATAGGATGTTATTT [XGTACX_negctrl_site309],7.86 ± 0.42
10,TATTAATTTATTTGTTGTACGTAAATATGCTTGTTT [XGTACX_site6591],7.83 ± 0.32
11,AAAAAAAAAAAAAATTGTACCCAAATATTTTTGTAG [XGTACX_site8303],7.92 ± 0.64
12,GACATATATAGCAATCGTACATATATTATAAAAGGT [XGTACX_site6891],8.19 ± 0.61
13,TTTAATCAATGATTTAATGAAAAAAGCAAAAAAAAA [GTGCAC_negctrl_site213],7.79 ± 0.87
14,CGTTTGGTACACGTAGTGTTTTCGTTTGAATGTACC [GTGCAC_negctrl_site201],7.91 ± 0.57
15,TTTAATTTTCCCTTCACACATAATATATATCTGTAT [CACACA_site5370],7.93 ± 0.59
16,AAAAGGAACAGACACACACACATATATAAATATGTA [CACACA_site7656],7.54 ± 0.49
17,TAACACTTTTTTTTTCGTACATATATTATATATATA [XGTACX_site5470],8.73 ± 0.52
18,AAATAGACATAAAAAGGTACACAAATTGTGTATTAA [XGTACX_site527],7.86 ± 0.41
19,TTTTTTTATATTATACGCACTAATATATATATATAT [XGTACX_negctrl_site40],9.79 ± 0.36
20,TTACTTGTTTATTTTTTTTTTTTTTTTTTTTTTGTT [TGCATGCA_negctrl_site103],7.17 ± 0.27
21,TAATGGAGAAAATAATGTACTTAGATATTTGTTCTA [XGTACX_site6312],7.38 ± 0.45
22,TTTAAATATTTTATAGCATGCTACCAATATGTATAT [TGCATGCA_site291],7.79 ± 0.49
